# In PubChem BioAssay AID2676 (National Center for Advancing Translational Sciences (NCATS), 2010):
# About 1,100 (0.3%) of roughly 370,000 compounds were called active. Another 1% or so got no clear call; they are omitted. Calls follow the shape of the dose curve; as a rule, active = well fitted activation curve with a large enough effect; inconclusive = small, poorly fitted or top-dose-only effect; inactive = flat fitted curve, though single readings scatter. The entries are a selection whose mix differs from that of the whole data set.
# Target: Relaxin receptor 1 (Homo sapiens) (UniProt Q9HBX9)
# Assay: qHTS Assay for Agonists of the Relaxin Receptor RXFP1; also: nearly all actives have a fitted effect of over 60% in size
# Settings: HEK293T-RXFP1 cAMP TR-FRET, 30 min; series mostly up to 57.5 µM; activation: at the top concentration
# Source text: NIH Chemical Genomics Center [NCGC] NIH Molecular Libraries Probe Production Centers Network [MLPCN] MLPCN Grant: R03 MH085705-01A1 Assay Submitter (PI): Alexander Agoulnik NCGC Assay Overview: The relaxin hormone is involved in the variety of biological functions in normal tissues and diseases. The role of relaxin is well-established in female reproduction and parturition, mammary gland and endometrial development, maintenance of myometrial quiescence during pregnancy. Relaxin signaling through its G protein-coupled receptor (GPCR) RXFP1 results in ECM remodeling through regulation of collagen deposition, cell invasiveness, proliferation and overall tissue homeostasis. […] Recombinant human relaxin (rhRlx) is currently being tested in clinical trials as a protective agent in congestive heart failure, in treating severe preeclampsia, and as an anti-fibrotic agent in systemic sclerosis. Upon relaxin binding RXFP1 activation leads to the activation of adenylate cyclase (AC) via Gs. cAMP will activate PKA, which phosphorylates many signaling proteins. Thus, detection of cAMP increase is an easy and reliable indication of relaxin receptor activation. To screen for agonists of the relaxin receptor, a HEK293T cell line stably transfected with RXFP1 was used. RXFP1 activation was assayed by changes in cAMP levels as detected with a time-resolved fluorescence energy transfer (TR-FRET) cAMP detection kit.
# NCGC Assay Protocol Summary: This is a cell-based assay for cAMP second messenger response to screen for agonists of the RXFP1 receptor. The assay was conducted in the presence of a PDE4 inhibitor (Ro 20174). The cells were lysed and the cAMP levels were measured with a TR-FRET cAMP kit. Presence of cAMP in the cell lysate disrupts binding between the cryptate-labeled anti-cAMP and d2-labeled cAMP pair, leading to a decrease in the TR-FRET signal. Data were normalized to the controls for basal activity (buffer only) and 100% activity (29 nM porcine relaxin). The EC50 values were determined from concentration-response data modeled with the standard Hill equation 1536-well assay protocol for the HEK293 RXFP1 cAMP assay: (1) Add 3 ul HEK293 RXFP1 cell culture. 2000 cells/well in DMEM/F12, 10% FBS, 1x Pen/Strep (dispensed offline with MultiDrop Combi). (2) Incubate 16-24 hr at 37C, 5% CO2. (3) Add 1 ul 400uM Ro20174 in DPBS, 0.05% BSA, 0.005% Tween 20. (3) Add 23 nl compounds in DMSO solution. Final concentration was 0.5 - 58 uM. (4) Incubate 30 min at 37C, 5% CO2. (5) Add 1 ul cAMP-d2 in lysis buffer (HTRF cAMP HiRange kit, CisBio). (6) Add 1 ul anti-cAMP antibody-cryptate in lysis buffer (HTRF cAMP HiRange kit, CisBio). (7) Incubate 30 min at room temperature. (6) Detect the assay plate in a ViewLux plate reader (PerkinElmer) with Ex=320 nm, Em1=615 nm and Em2=665 nm. Keywords: relaxin, RXFP1, RXFP2, G-protein coupled receptor, cAMP, agonist, high throughput screening, MLSMR, MLSCN, NIH Roadmap, qHTS and NCGC
# % is scaled to controls: 0 for no effect and ±100 for the full control effect; potency is read from the fitted curve at half-maximal effect.
# Chain of UniProt Q9HBX9 (Q9HBX9 whole entry, looked up): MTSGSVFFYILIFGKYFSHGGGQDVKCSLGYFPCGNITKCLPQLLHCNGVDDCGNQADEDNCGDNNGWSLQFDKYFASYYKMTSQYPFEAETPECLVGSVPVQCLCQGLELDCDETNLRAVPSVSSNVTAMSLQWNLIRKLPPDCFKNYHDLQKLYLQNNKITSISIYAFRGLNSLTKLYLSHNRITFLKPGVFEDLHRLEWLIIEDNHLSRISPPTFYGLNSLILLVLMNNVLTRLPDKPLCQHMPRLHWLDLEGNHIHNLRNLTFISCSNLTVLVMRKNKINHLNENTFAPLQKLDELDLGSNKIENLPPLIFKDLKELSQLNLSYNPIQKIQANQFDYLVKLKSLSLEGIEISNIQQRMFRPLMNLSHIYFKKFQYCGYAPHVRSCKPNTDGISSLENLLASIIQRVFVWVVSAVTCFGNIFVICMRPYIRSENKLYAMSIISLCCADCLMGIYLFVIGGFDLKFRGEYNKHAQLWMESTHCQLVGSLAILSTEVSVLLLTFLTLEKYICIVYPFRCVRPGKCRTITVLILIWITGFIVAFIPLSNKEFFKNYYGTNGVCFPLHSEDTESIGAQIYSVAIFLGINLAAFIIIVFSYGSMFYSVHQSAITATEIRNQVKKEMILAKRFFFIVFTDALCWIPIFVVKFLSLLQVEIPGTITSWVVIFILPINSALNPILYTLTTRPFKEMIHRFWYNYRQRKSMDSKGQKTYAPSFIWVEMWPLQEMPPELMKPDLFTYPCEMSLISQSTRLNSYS
SMILES,Potency,activation
O=c1[nH]c(O)c(N=Nc2ccc([N+](=O)[O-])cc2)c(=O)[nH]1,active: 14.1 µM,
Nc1ncc2[nH]cnc2n1,,inactive: 2.2%
CCCNC1=C(C)C(=O)C2=C(C1=O)C(COC(N)=O)[C@]1(OC)C3NC3CN21 (stereo partly specified),,inactive: -55.4%
O=c1[nH]c(=S)n(C2CC2)c(O)c1C=NCc1ccc(F)cc1,active: 25.1 µM,
O=C1NC(=S)NC(=O)C1=Cc1ccc2c(c1)CCN2CCCCl,,inactive: -33%
CC[n+]1c(/C=C/C=C/c2ccc(N(C)C)cc2)sc2ccccc21,,inactive: -30.3%
